Experimental data: the supplement of paper PMC3334620
The full ranking holds about 33,000 sequences; the median of “E-score (-0.5 to 0.5)” is about -0.013, and the highest 2% start at about 0.3. This is one part of the list.

target: T1, Msn1 (UniProt P22148); experiment: PBM E-score (8-mer binding enrichment) (E-score (-0.5 to 0.5)); higher = stronger / more preferred TF binding; most listed sequences are background and not binding sites; conditions: protein concentration: 200 nM; construct: GST-full length
T1 sequence: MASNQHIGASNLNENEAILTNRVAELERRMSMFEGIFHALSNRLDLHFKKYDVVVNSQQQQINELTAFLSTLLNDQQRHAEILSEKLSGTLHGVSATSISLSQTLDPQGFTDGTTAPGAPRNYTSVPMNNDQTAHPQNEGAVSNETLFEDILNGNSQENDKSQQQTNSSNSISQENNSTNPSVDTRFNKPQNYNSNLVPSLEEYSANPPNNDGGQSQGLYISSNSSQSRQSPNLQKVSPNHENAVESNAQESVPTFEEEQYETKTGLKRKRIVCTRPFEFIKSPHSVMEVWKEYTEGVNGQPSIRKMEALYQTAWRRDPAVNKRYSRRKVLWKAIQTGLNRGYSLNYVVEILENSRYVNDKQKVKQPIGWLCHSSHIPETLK
Summary of the method: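 Bound GST-tagged yeast transcription factors, applied at about 100-200 nM to double-stranded universal all-10-mer Agilent arrays, were detected with fluorescent anti-GST. Scans were normalised with masliner. A modified Wilcoxon-Mann-Whitney statistic, the E-score, was assigned to each ungapped eight-base word pooled with its reverse complement by the Universal PBM Analysis Suite.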

| Sequence | PBM E-score |
| --- | --- |
| AAAGTGTT | 0.115 |
| GGACCACA | -0.0418 |
| CGTTTTAG | 0.0391 |
| CCTCTAGA | -0.0117 |
| ATACTTGC | 0.127 |
| GCGAGTAC | 0.19 |
| CGTTGAAG | -0.115 |
| AGTCAGCA | -0.153 |
| ACAGGGGA | -0.151 |
| TACGTGGA | -0.0535 |
| CCTTGTCC | 0.449 |
| CTCTGCTC | -0.253 |
| AGCTTAAT | -0.00074 |
| GAATACTC | -0.00642 |
| ATACGAGA | -0.212 |
| ACGTGGGG | -0.0561 |
| GACTGGGC | -0.142 |
| GTCGATGA | -0.0803 |
| CGATCTGC | -0.0831 |
| GCGAGGTA | -0.00651 |
| CCGAGGCC | -0.108 |
| ATACTTCC | -0.0102 |
| CAACTGTC | 0.126 |
| CTCCCGGC | 0.00895 |
| AAGTGGAT | -0.0864 |

| Sequence | PBM E-score |
| --- | --- |
| AAACGTCT | 0.24 |
| CGTTGTCA | -0.023 |
| AGGTCAGA | -0.0688 |
| TTAGTCAA | -0.129 |
| ATGCTCGG | -0.132 |
| GATCTGTA | -0.0087 |
| AGGTCATG | 0.0174 |
| GTATCTGA | 0.14 |
| AGGCTTTG | -0.111 |
| CCGTGACA | 0.164 |
| CGGGTGGC | -0.294 |
| ACCCTGCG | -0.0799 |
| AAGTGCCT | -0.232 |
| ATGTGTAC | 0.248 |
| AGCACTAC | -0.233 |
| ATGAGCTG | -0.139 |
| CAAGCAGA | 0.165 |
| ATAGCGCC | -0.117 |
| ATTAGCTA | -0.086 |
| CAACCGGC | 0.0722 |
| ATTCGCCC | -0.142 |
| TGCCCAAA | -0.0979 |
| AACCTAAC | -0.15 |
| AAGGTGGG | -0.116 |
| GGCATTTA | -0.103 |

| Sequence | PBM E-score |
| --- | --- |
| CCAGATAA | 0.0449 |
| CCTGGTGC | -0.137 |
| AAACGGAA | 0.189 |
| GCGGAGGA | -0.195 |
| CCTATGGA | 0.042 |
| ACGCGTGG | 0.00026 |
| CAACTAAC | 0.106 |
| CCAGACGC | -0.193 |
| CTCCTTGA | -0.216 |
| AGTTGGAC | 0.23 |
| ACGAGTAT | -0.134 |
| CATGTTGG | 0.103 |
| GGCAATCA | -0.00559 |
| ACCAAGCT | 0.176 |
| CACCAGGG | -0.289 |
| AAAAAATT | -6e-05 |
| AGTCCCAG | 0.0531 |
| GGGCCGCA | -0.0501 |
| CCGTTAAC | 0.0702 |
| CCTGTAGA | 0.011 |
| GCCATCTA | -0.154 |
| AGAATAAG | 0.0878 |
| AGATCAAA | -0.0384 |
| ATACCCTG | -0.0143 |
| CTGAGTAA | -0.0248 |

| Sequence | PBM E-score |
| --- | --- |
| ACTCCACG | -0.0977 |
| ATAATAAC | 0.0515 |
| CTAAGCCA | -0.204 |
| AAATGAAG | 0.0377 |
| ACAAACCA | 0.177 |
| AACGCGCA | 0.0148 |
| ACTGCTGA | -0.263 |
| CTCATGTA | 0.0182 |
| GCAACGAC | -0.0993 |
| AATCGAAA | -0.0506 |
| AAAGCGGG | -0.0468 |
| TATAGAGA | -0.048 |
| CGCGACTC | -0.0614 |
| CGTGACAC | 0.178 |
| AGCAGATG | -0.215 |
| CCATTTCA | -0.106 |
| ATACCAGC | -0.101 |
| AGGTTGAT | -0.204 |
| CGATTACG | -0.012 |
| CGTATTCA | 0.00724 |
| ATATCGAC | 0.165 |
| ATTTGAAG | 0.0099 |
| GACCTACC | -0.0756 |
| CAAGAGTA | 0.0644 |
| CCGACTCA | 0.0468 |

| Sequence | PBM E-score |
| --- | --- |
| AGTTTGTA | 0.182 |
| CGATCGGA | 0.0488 |
| GAGACCAC | -0.218 |
| AGAAGAAA | 0.0176 |
| AATATAGC | 0.0433 |
| CGCGGGGC | -0.0612 |
| GCTAGCAA | -0.0318 |
| GAGTTCGA | 0.0396 |
| AATCGGGG | -0.223 |
| GCTCTCGA | -0.179 |
| ACATAGGA | -0.103 |
| ACTAGAGC | -0.00897 |
| CAGCCGCC | -0.17 |
| GAGGTCCC | -0.192 |
| ATATTACC | 0.0127 |
| AATTATCG | 0.225 |
| TGCGCACA | 0.029 |
| TACTAGTA | 0.225 |
| ACTCTTCG | -0.0863 |
| GCCCTAAA | -0.189 |
| GCCCCTTA | -0.239 |
| ACTAACAT | 0.268 |
| ACCAAACG | -0.00261 |
| GAGTTTAC | -0.0145 |
| ACTCCAGT | -0.078 |

| Sequence | PBM E-score |
| --- | --- |
| CTACTGTC | -0.0568 |
| AACGGCGT | -0.024 |
| CGACTTAG | -0.095 |
| AGTACGAG | 0.0168 |
| GCTAACTA | -0.0398 |
| AACCCGAA | -0.0916 |
| TGCTACCA | -0.0221 |
| CTACACTC | -0.1 |
| TAGCACGA | 0.0937 |
| ACCTCTTG | -0.141 |
| AACCCTCT | -0.241 |
| AGCCTAGC | -0.0563 |
| CCGCGTCA | -0.16 |
| AGACCCGA | -0.0425 |
| CACTCCGG | 0.0934 |
| CAATCCTG | 0.0682 |
| ATGGCTGA | -0.133 |
| CGCCGGAC | 0.118 |
| AATCGAAG | 0.125 |
| ATTTGCGG | 0.249 |
| CCGATGCC | -0.0116 |
| TAGCGAGA | 0.0828 |
| GAATTAGA | 0.173 |
| ACACTTTG | 0.12 |
| ACAACTTC | 0.192 |

| Sequence | PBM E-score |
| --- | --- |
| CGGCCTCA | -0.159 |
| AGCTCGTC | -0.0144 |
| TTATGAAA | 0.101 |
| GCTGCAAA | 0.145 |
| ATTAGTAG | 0.00551 |
| GACTATCC | -0.144 |
| CAGAGACA | 0.204 |
| CTCCCATC | -0.22 |
| GCCACGGA | -0.0843 |
| AACAACTT | 0.193 |
| ACACCTCT | -0.181 |
| CTCACCCA | -0.0776 |
| CCGGGTAC | -0.131 |
| CCGCAAAA | 0.00778 |
| ATTAGACC | -0.103 |
| CGGGCCCA | -0.116 |
| AGGACCCC | -0.137 |
| CCGATTCA | -0.0358 |
| GTGGGAAA | 0.0298 |
| CAACGACC | -0.156 |
| CGTTCAAA | -0.0237 |
| CATTGCGA | -0.0316 |
